Some of the results follow. At the low end of the ranking the order means little.

The target in this assay is SIX1 homeodomain (reference allele) (UniProt Q15475). The experiment in a line: universal protein binding microarray. The following applies: Universal all-10-mer PBM (8x60K, AMADID 030236), 300 nM GST-tagged protein, Alexa Fluor 488 anti-GST; buffer, salt, pH and temperature not stated; high values mean tight binding; most listed sequences are background and not binding sites; double strand, one strand shown.
ACGGTGAT: the binding signal amounted to 0.181 E-score.
Next, GGGCAGCA: -0.178 E-score; TCCTAAGA: -0.0408 E-score; GAAGATGA: 0.0209 E-score.
As for GCCCGCCA, the binding signal was -0.0486 E-score.
Next, AGGTCAAG: -0.23 E-score; GTCGGGGA: 0.111 E-score.
With ATGCCATG, the binding signal worked out at 0.0219 E-score.
Then AGCGTAAG, with -0.225 E-score.
Next, CAAAGAGC: -0.154 E-score; CGAACGGA: 0.134 E-score; CGCTCACC: -0.0796 E-score.
As to CGGATTTA, the binding signal is 0.196 E-score.
Next, AGAAACCA: -0.0272 E-score.
Next, CACCCCTC: 0.251 E-score; CTGTATCC: 0.387 E-score; GGTAGTCA: -0.00398 E-score.
Next, AACAAAGT: -0.163 E-score; GCCTCGCA: -0.125 E-score.
Consider GTGGGTCA, for which the binding signal was -0.0397 E-score.
Regarding GGGGAACC, the binding signal is -0.109 E-score.
As for AAGTTAAT, the binding signal amounted to 0.00515 E-score.
Then AACGAAAG, with -0.18 E-score.
Then AAGCGTAT, with 0.231 E-score; and GACTTATC, with 0.0464 E-score.
Then AGGCGAAC, with -0.135 E-score; and CGGTGGAA, with -0.225 E-score; and AGAGCCAT, with -0.0522 E-score.
Regarding TGGATCCA, the binding signal was 0.295 E-score.
Next, CCAAGGGA: 0.0716 E-score.
Next, CCGTCCCG: -0.165 E-score; AATTGTCC: -0.285 E-score; CACCCCGG: 0.155 E-score.
Next, GATTATAA: 0.165 E-score.
As to CGCGTCTC, the binding signal is 0.0915 E-score.
Then AATCTCCC, with 0.13 E-score; and CAACGTTC, with -0.275 E-score; and CTTTCGGA, with -0.123 E-score.
Next, CCCTTAAA: -0.0185 E-score; CTGTGAAC: -0.133 E-score.
CACGATAC: the binding signal worked out at 0.438 E-score.
Take ACGCCTCT: the binding signal is -0.118 E-score.
Then AAAGCTGG, with -0.146 E-score; and CACCTTCA, with 0.0657 E-score; and CGCCCGGA, with 0.0225 E-score.
On to CCTTGTCC, for which the binding signal is 0.0393 E-score.
Next, ATTGACGA: 0.0689 E-score.
Next, CATAGGAG: -0.113 E-score; CGGTCGTC: -0.12 E-score.
Next, CGTATAAG: 0.139 E-score.
Consider GGGCAACA, for which the binding signal is -0.0459 E-score.
Then ATTGTTTC, with -0.0781 E-score; and CCCTACAA, with -0.0638 E-score.
Next, CCCCCATC: 0.0706 E-score; CATTTAAC: -0.0253 E-score.
Next, GCTAGGTA: 0.0894 E-score; ATCAGTCG: 0.154 E-score.
With AATGGGCA, the binding signal is -0.226 E-score.
Next, ACGCGCAG: -0.047 E-score.
Then ACCGGCGG, with -0.0269 E-score; and CTCGTCGC, with -0.179 E-score; and CGGTGAAA, with -0.0121 E-score.
With CGGCTTAA, the binding signal was 0.13 E-score.
As to CTTGTTGA, the binding signal was -0.0132 E-score.
Then GCACTTCA, with -0.269 E-score; and CATACGAC, with 0.0218 E-score; and AATAATGC, with 0.0282 E-score.
Then GGTTGGCA, with -0.0309 E-score; and AACGAACC, with -0.0542 E-score.
Next, ATGATCCA: 0.391 E-score; GGAAATAA: -0.11 E-score.
As to ACCTGAGT, the binding signal was -0.0865 E-score.
For CGCAAGCG, the binding signal is -0.17 E-score.
Next, GTGTTGTA: 0.00185 E-score; CCGCAGGA: -0.0257 E-score.
In the case of CACACTTC, the binding signal is -0.0634 E-score.
Next, GGAGAACC: 0.12 E-score.
Then GACATCAC, with -0.158 E-score.
Then AAAATTTC, with -0.152 E-score.
Turning to ATACAAGA, the binding signal was found to be 0.239 E-score.
Next, ACGAAGCA: -0.124 E-score.
As for CCACGGAG, the binding signal was -0.00554 E-score.
Then AACTCCAA, with -0.253 E-score; and TATTAAGA, with 0.0987 E-score; and CGCAGCGC, with -0.125 E-score.
Next, AAGTGTGA: -0.112 E-score; AACGGCAT: -0.0142 E-score.
Then ACGGTACC, with -0.0396 E-score.
For the sequence CTGACGCC, the binding signal was -0.103 E-score.
Turning to CATCGGTC, the binding signal was -0.0237 E-score.
Then ACTGGACC, with -0.162 E-score; and CTCCTGTA, with -0.102 E-score.
Then GCCAACTA, with -0.146 E-score.
Then ACTTATTC, with -0.12 E-score.
With ATACGCCC, the binding signal was determined as 0.275 E-score.
Take AAAATCCA: the binding signal is 0.00411 E-score.
Next, ATATGTAC: 0.244 E-score; CAGGTACA: -0.0285 E-score; CCGTGCGA: 0.109 E-score.
Next, CTGTTCTC: -0.184 E-score; CACTTCTA: 0.143 E-score; CGAAGGCC: -0.356 E-score.
With ACCCTCGA, the binding signal amounted to 0.103 E-score.
Next, ATCTTAGC: 0.0959 E-score; CATTCACA: -0.271 E-score; AACTCTGA: -0.183 E-score.
Then AGCGAATG, with -0.178 E-score.
Then CGGCGGCC, with -0.131 E-score; and CAGCTCTA, with -0.00351 E-score; and CACGCGAG, with -0.122 E-score.
As for TGGCTGAA, the binding signal was -0.0477 E-score.
Next, AGCTAACT: -0.128 E-score.
For the sequence TAAATAAA, the binding signal was -0.148 E-score.
Then CCTGTACG, with -0.0176 E-score.
Then ACTAACAC, with -0.0253 E-score.
Next, ACAGAGCA: -0.175 E-score; ACTGGCTA: -0.182 E-score; CGCAGCCC: -0.224 E-score.
As to CGAGTTGC, the binding signal was -0.225 E-score.
As to CTGACTCC, the binding signal is -0.0493 E-score.
Then ACACGTTC, with -0.0979 E-score; and AACCTGGG, with -0.0294 E-score.
Then GTATTCGA, with 0.141 E-score; and AACCCGTG, with -0.0305 E-score; and TCATGTCA, with -0.0575 E-score.
For the sequence AATGTCGC, the binding signal was -0.0445 E-score.
Then GCACACCC, with 0.144 E-score; and ATCATGCG, with 0.24 E-score; and GCTTTTAA, with -0.281 E-score.
Next, GACAGGAA: -0.197 E-score; CAGGACAC: 0.187 E-score.
Then AAGTAACA, with -0.148 E-score; and GAGTTTTA, with -0.121 E-score.
As for CCTGCCTA, the binding signal turned out to be 0.0626 E-score.
Then CGACTGGC, with -0.242 E-score; and CACGCGCG, with -0.146 E-score.
Next, AATGTAAA: -0.0866 E-score.
On to CAGCTTAA, for which the binding signal is -0.157 E-score.
Then ACAGCTGG, with -0.274 E-score; and GGATTGGA, with 0.171 E-score; and TAACTAGA, with 0.0558 E-score.
In the case of AAACCTAA, the binding signal is -0.109 E-score.
As for CCCGGAGC, the binding signal was -0.109 E-score.
Next, CATTTCGG: -0.137 E-score.
Then GCTCGCCC, with -0.0344 E-score.
Then AGCCCTTG, with -0.0416 E-score.
For AACATCGC, the binding signal was -0.164 E-score.
Then CAGATTGG, with 0.0663 E-score; and AGTCCCGG, with -0.293 E-score; and CGGCGACG, with -0.13 E-score.
Next, CACCGGGG: 0.0349 E-score.
Then CTATTATA, with 0.132 E-score.
As for ACGGGTCG, the binding signal was -0.0259 E-score.
Next, CACTAGTG: 0.138 E-score; ACAGGGCT: -0.194 E-score; CCCGCGCC: 0.0972 E-score.
Consider GGGGCGGA, for which the binding signal is 0.159 E-score.
Regarding CATGTCAC, the binding signal is -0.146 E-score.
Then CGGTCCGA, with 0.0143 E-score.
Then AACTATGC, with -0.183 E-score; and CGTCCATA, with -0.0698 E-score; and CTCCAGGC, with -0.221 E-score.
Then CAGCGGCA, with -0.274 E-score.
For AGTCTGCA, the binding signal was -0.273 E-score.
Next, GTCTTATA: 0.145 E-score.
GGCATACA: the binding signal was determined as 0.0145 E-score.
Then ACTTCGCT, with -0.0769 E-score; and AGAAGAAC, with -0.0578 E-score.
In the case of AGTCGCAT, the binding signal is -0.0501 E-score.
Next, GCCCCGTA: 0.048 E-score.
Next, CCCCTATA: 0.198 E-score; CACCAAGG: 0.0261 E-score.

Source of the values: PMC10668032.
